Reference: publication PMC4336329 (PLoS ONE, 2015)
Hit rate of the full screen: of about 310,000 compounds, about 14,000 (4.5%) showed an effect of 50% or more. Effects have a minus sign here. The list shows a part of the results.

These compounds were tested against human ether-à-go-go-related gene (hERG) potassium channel (human, UniProt Q12809) (assay: primary screen, population patch clamp on CHO cells stably expressing hERG).
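Note: peak tail current of the secondary pulse compared with the same well before compound.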

Sequence of human ether-à-go-go-related gene (hERG) potassium channel (Q12809 whole entry, looked up): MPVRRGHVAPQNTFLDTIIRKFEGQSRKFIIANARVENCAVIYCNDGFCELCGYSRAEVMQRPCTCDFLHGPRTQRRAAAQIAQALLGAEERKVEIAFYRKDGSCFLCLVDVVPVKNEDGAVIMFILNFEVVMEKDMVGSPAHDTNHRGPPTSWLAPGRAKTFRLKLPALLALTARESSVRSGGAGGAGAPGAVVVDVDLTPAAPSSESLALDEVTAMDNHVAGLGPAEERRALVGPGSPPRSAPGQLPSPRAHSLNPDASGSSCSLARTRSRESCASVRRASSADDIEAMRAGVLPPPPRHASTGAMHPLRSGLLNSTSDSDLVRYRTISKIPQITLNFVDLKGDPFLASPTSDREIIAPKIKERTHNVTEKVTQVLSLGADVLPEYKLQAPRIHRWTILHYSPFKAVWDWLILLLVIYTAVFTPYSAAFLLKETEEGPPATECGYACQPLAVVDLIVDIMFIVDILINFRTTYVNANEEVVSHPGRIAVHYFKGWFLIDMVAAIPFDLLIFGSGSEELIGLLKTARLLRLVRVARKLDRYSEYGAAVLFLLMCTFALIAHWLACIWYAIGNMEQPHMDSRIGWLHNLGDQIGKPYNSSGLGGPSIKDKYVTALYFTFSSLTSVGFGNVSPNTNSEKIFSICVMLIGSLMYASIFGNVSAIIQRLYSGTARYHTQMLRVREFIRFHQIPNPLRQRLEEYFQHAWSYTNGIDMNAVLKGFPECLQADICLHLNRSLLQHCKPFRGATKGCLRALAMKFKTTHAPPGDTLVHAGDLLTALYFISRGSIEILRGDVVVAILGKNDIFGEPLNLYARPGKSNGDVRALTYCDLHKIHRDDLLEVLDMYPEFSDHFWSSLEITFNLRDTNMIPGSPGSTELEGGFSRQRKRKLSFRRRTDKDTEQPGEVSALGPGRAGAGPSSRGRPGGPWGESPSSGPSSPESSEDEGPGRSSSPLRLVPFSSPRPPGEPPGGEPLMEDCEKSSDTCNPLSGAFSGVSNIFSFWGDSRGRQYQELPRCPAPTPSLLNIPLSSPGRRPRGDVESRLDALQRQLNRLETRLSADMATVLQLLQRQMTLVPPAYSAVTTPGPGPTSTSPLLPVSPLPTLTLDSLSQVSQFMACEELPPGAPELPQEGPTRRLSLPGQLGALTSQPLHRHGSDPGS

Compound | hERG current change (%, negative = inhibition) at 10uM
O=C(CSc1nnnn1Cc1ccccc1)Nc1ccc2c(c1)OCCO2 | -3.63%
N#CCO/N=C/C(=O)Nc1ccc(F)cc1F | 2.49%
COC(=O)c1ccc(NC(=O)CS(=O)(=O)Cc2ccccc2)cc1 | 1.28%
CN(CC(=O)O)Cc1nc2ccccc2[nH]1.Cl | 6.63%
Cl.O=C1Cc2ccccc2Sc2cc(OCCCN3CCCCC3)ccc21 | -69.8%
COc1ccc(-n2c(=O)[nH]cc(C(=O)Nc3ccc4c(c3)OCO4)c2=O)cc1OC | 4.63%
CCOC(=O)N1CCN(C(=O)C2CCN(Cc3nc(-c4ccccc4C)oc3C)CC2)CC1 | -58.3%
S=C(NCCN1CCOCC1)Nc1ccc(Cl)cc1Cl | -18%
CC(=O)C(=Nc1ccccc1Cl)NNc1ccc(Cl)cc1 | 17.3%
O=C(Cc1ccc(Cl)cc1)N/N=C/c1cccs1 | 13.9%
COc1ccc(C2C(C(=O)c3ccco3)=C(O)C(=O)N2CCOCCO)cc1OC (stereo not shown) | 15%
Cc1noc(C)c1C(=O)Nc1nc(-c2ccccc2Cl)cs1 | -0.869%
c1cc2c(cc1-c1cnc3n1CCC3)OCCO2 | -25.5%
O=C(Nc1cccc(Br)c1)/C(=C\c1cccnc1)NC(=O)c1ccco1 | -56.6%
COc1ccc(-c2c(-c3ccsc3)oc3ccc(N4CCOCC4)cc23)cc1 | -0.8%
N#Cc1nc(-c2ccc(OCc3ccc(Cl)cc3)cc2)oc1NCCCn1ccnc1 | 5.77%
Cc1ccc(-n2c(Cc3cccc4ccccc34)n[nH]c2=S)c(C)c1 | 16.3%
CC(C)(C)NC(=O)C(=O)N/N=C/c1ccc(F)cc1 | 7.3%
COc1ccc(OC)c(/C=N/NC(=O)C(O)c2ccccc2)c1 (stereo not shown) | 13.5%
O=C(N/N=C/c1ccccc1[N+](=O)[O-])c1ccc2nc[nH]c2c1 | 11.3%

Compound | hERG current change (%, negative = inhibition) at 10uM
CC(=O)NCCNc1nc2c(-c3ccccc3)nnn2c2ccccc12 | 6.84%
COC(=O)c1ccc(S(=O)(=O)NCc2ccc(OC)cc2)n1C | -1.31%
CCOc1c(Br)cc(C(=O)NCCCn2ccnc2)cc1OC | 4.22%
CC(=O)Nc1ccc(C(=O)NCCCSc2ccccc2)cc1 | 10.2%
c1ccc(OCCCCN2CCCCC2)cc1 | 1.35%
COc1ccc(CC(=O)Nc2cccc(/C(C)=N/NC(=O)C3(C)CC3(Br)Br)c2)cc1 (stereo not shown) | 6.31%
Cl.c1ccc(CCN=C2CCCc3c2[nH]c2ccccc32)cc1 | -73.2%
CCN1CCN(CC(=O)c2cc(Cl)ccc2Cl)CC1 | 21.9%
Cc1cc(C)c(-c2cc(NC(=O)COC(=O)c3ccc(CO)cc3)n(-c3ccccc3)n2)cc1C | 9.94%
O=C(CCn1cccc1)N1CCc2ccccc21 | 9.79%
CN1CCN(c2ncnc3c2[nH]c2ccc(F)cc23)CC1 | -14%
COc1cc(/C=C2/NC(=O)N(Cc3ccccc3F)C2=O)cc(OC)c1O | -25.2%
Cn1nnnc1NCc1ccc(Cl)cc1 | 9.84%
CCN(CC(=O)Nc1ccc(OC)cc1)C(=O)CCS(=O)(=O)c1ccc(C)cc1 | -0.944%
COc1ccccc1NC(=O)COc1cc(Br)c(CNCCCN2CCOCC2)cc1OC | -54.6%
Cc1cc(-c2n[nH]c(=S)n2/N=C/C=C/c2ccccc2)n[nH]1 | 6.76%
Cc1ccc(S(=O)(=O)N(C(=O)c2ccncc2)c2ccc3oc4c(c3c2)CCCC4)cc1[N+](=O)[O-] | 20.9%
C=CCn1nnnc1SCC(=O)Nc1ccccc1C(=O)OC | -14.2%
Cc1ccccc1OCc1nc2ccccc2c(=O)n1/N=C/c1cccc([N+](=O)[O-])c1 | -0.947%
Cc1ccc(/C=N/NC(=O)c2cc(-c3ccccc3)nc3ccccc23)o1 | 17.1%

Compound | hERG current change (%, negative = inhibition) at 10uM
CC1CCN(c2c(NCC3CCC(C(=O)NCc4ccc(F)cc4)CC3)c(=O)c2=O)CC1 (stereo not shown) | -4%
Clc1cc(Br)ccc1OCCCn1ccnc1 | -39.5%
CCOc1cc(S(=O)(=O)NCc2ccccc2)c(OCC)cc1-n1cnnn1 | -14.3%
CCc1noc(C)c1C(=O)N(Cc1ccccc1)c1c(N)n(CCOC)c(=O)[nH]c1=O | 8.37%
C=CCn1c(C)nnc1SCC(=O)NC1CCCCC1 | 12.3%
Cc1ccc(C(=O)Cn2c(C(=O)/C=C/c3ccccc3)nc3ccccc32)cc1 | -11.9%
CCOC(=O)CNC(=O)c1cnc(Nc2ccccc2OC)c2ccccc12 | 5.33%
O=C(COc1ccccc1)Nc1ccc2[nH]ncc2c1 | -2.56%
COc1ccc(S(=O)(=O)NC(CC(=O)N2CCc3ccccc32)c2ccco2)cc1 (stereo not shown) | -17.3%
Cl.Oc1ccc(C(c2nnnn2C2CCCC2)N2CCc3ccccc3C2)cc1 (stereo not shown) | -17.7%
Cl.Nn1cnnc1N/N=C/c1ccc(Cl)cc1Cl | 6.34%
CCCc1[nH]n(-c2nc3ccccc3s2)c(=O)c1C=NCCCOC | -57.2%
CCCC(=O)C1=C(N(C)c2ccccc2)CC(C)(C)CC1=O | 12.4%
O=C(N/N=C/c1ccc(O)cc1)c1csc2c1CCCC2 | -19.7%
COc1ccccc1C(=O)NCC(=O)NCc1cc(=O)n(C)c(=O)n1C | 21.8%
Cc1cccc(C(=O)OCC(=O)Nc2nccs2)c1 | 5.87%
Cc1cc(C)n(Cc2ccc(NC(=O)c3c([N+](=O)[O-])c(C)nn3C)cc2)n1 | 0.739%
CCCN(CCC)S(=O)(=O)c1ccc(C(=O)Nc2nc(-c3ccccc3)c(C(=O)OCC)s2)cc1 | 0.0347%
